In article PMC6919601, “Identification of Plasmodium dipeptidyl aminopeptidase allosteric inhibitors by high throughput screening” (PLoS ONE, 2019):
Several values for one entry are separate records, joined by “and”; a condition that tells them apart may be missing. Equal entries are not always repeated. Among all 110,000 compounds or so, about 230 (0.21%) showed an effect of 50% or more. Some of the results follow.

These molecules were tested against DPAP1 (Plasmodium falciparum, UniProt Q8IIJ9) (assay: primary screen, percent inhibition; read by cleavage of a fluorogenic dipeptide substrate; higher = more effect of the substance).
Set-up: species or system P. falciparum D10 trophozoite lysates; single well
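Also: 30 min substrate incubation versus DMSO and 10 µM JCP410 controls.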

Chain of DPAP1 (Q8IIJ9 whole entry, looked up): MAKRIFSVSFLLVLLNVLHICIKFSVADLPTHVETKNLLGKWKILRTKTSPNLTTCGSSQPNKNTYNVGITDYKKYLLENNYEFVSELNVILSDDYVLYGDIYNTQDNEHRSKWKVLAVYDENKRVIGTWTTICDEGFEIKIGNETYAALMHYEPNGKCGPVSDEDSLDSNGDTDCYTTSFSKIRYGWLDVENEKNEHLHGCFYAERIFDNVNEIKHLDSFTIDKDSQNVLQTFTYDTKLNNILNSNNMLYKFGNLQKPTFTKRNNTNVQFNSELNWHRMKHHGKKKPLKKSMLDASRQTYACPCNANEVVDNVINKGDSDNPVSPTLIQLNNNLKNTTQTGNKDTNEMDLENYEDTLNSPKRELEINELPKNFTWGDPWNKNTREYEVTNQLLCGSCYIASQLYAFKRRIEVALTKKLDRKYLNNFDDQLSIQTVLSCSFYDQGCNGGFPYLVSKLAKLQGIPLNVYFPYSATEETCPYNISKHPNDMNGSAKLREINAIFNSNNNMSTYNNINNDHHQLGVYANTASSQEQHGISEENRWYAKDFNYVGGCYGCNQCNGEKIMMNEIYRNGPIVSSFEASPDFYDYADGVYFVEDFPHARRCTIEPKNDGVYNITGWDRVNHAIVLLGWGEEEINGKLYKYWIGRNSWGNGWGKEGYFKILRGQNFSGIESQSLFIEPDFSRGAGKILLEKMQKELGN

SMILES	% Inhibition @ 10 uM
CC(C)C[C@H](NC(=O)c1ccc(OCc2csc(N3CCNCC3)n2)cc1)C(=O)NCC#N	-3.04%
N#Cc1cc2c(=O)n3ccccc3nc2n(CC2CCCO2)c1=N (centres unmarked)	-3.27%
Cc1ccc(S(=O)(=O)N2CCC(C(=O)N3CCC(C(=O)NCc4ccccc4)CC3)CC2)cc1	3.66%
Cc1cc(C)c(NS(=O)(=O)c2ccc(NC(=O)c3cccs3)cc2)c(C)c1	5.47%
CCCOC(=O)c1ccc(NC(=O)c2ccc(-c3ccccc3)cc2)cc1	1.26%
O=c1oc(-c2ccc(-c3ccccc3)cc2)nc2ccccc12	-0.233%
CCN1CCN(c2nc3c(c(=O)[nH]c(=O)n3C)n2CCCSc2ncccn2)CC1	-6.43%
CC1=C(C(=O)Nc2ccccc2C)C(c2cccc(C)c2)n2nc(CCCO)nc2N1 (centres unmarked)	7.14%
CC1(C)CC(O)=C/C(=N/Cc2ccccc2)C1	11.8%
CCOC(=O)C1CCCn2c1nc1scc(-c3ccccc3)c1c2=O (centres unmarked)	-0.693%
O=C(Nc1ccc(NC(=O)c2cccc(S(=O)(=O)N3CCCCC3)c2)cc1)c1ccccc1	-9.31%
O=P(O)(CCc1ccncc1)CN1CCCCC1	4.97%
COCCCNC(=O)c1ccc(CS(=O)(=O)c2ccccc2C)o1	3.77%
COc1cc(-n2c(C)nc3cc(C(=O)NCc4ccc(F)cc4)ccc32)cc(OC)c1OC	-0.458%
COc1cccc(/C=C/C(=O)NCC(=O)O)c1OC	-8.34%
O=C(Nc1ccccc1)c1ccccc1NC(=O)C(F)(F)F	7.09%
O=C1CCc2cccc3c(O)c(-c4ccccc4)c(O)c1c23	0.674%
CC(=O)c1ccc(NS(=O)(=O)c2cccc(C(F)(F)F)c2)cc1	-7.83%
COc1cc2c(cc1OC)C(c1ccc(Cl)cc1Cl)N(C)CC2 (centres unmarked)	-4.3%
CCN(CC)CCC(=O)N1N=C(c2ccc(C)cc2)CC1c1ccc(OC)cc1 (centres unmarked)	0.884%
COc1cccc(CNC(=O)CN(C)c2nn3c(=O)cc(C)nc3s2)c1	6.06%
O=C(NCCc1nc2ccccc2n1C/C=C/c1ccccc1)c1ccco1	-2.99%
Cc1cc(Nc2ccc(Br)cc2)nc(-c2ccccc2O)n1	6.15%
O=C(c1ccc(C#Cc2ccccc2)cc1)N1CCN(c2ccccn2)CC1	-6.83%
Cc1c(C(=O)NCCC2=CCCCC2)oc2ccc(S(=O)(=O)N3CCOCC3)cc12	6.66%

SMILES	% Inhibition @ 10 uM
CCn1nc(-c2ccncc2)nc2c(=O)n(C)c(=O)nc1-2	5.92%
N#C/C(=C(/O)C(F)(F)F)c1nc2ccccc2[nH]1	18.3%
COc1cccc(N(CC(=O)NCc2ccccc2)S(=O)(=O)c2ccccc2)c1	-1.43%
COc1ccc2c(CNCCc3ccccc3C)c(C(=O)O)n(Cc3ccc(C)cc3)c2c1	-0.959%
CN(C)CCN(C(=O)C1CCCCC1)c1nc2c(F)cc(F)cc2s1	-0.0255%
N#CC1=C(n2cccc2)OC2=C(C(=O)CCC2)C1c1ccc(F)cc1 (centres unmarked)	3.47%
O=C(NCc1ccccc1F)c1cccc(C(=O)NCc2ccccc2F)c1	1.93%
COc1ccc(C(=O)Cn2cnc3c(oc4ccccc43)c2=O)cc1	-6.05%
CS(=O)(=O)C1=NSC2=NC(=O)/C(=C\c3c[nH]c4ccccc34)C(=N)N21	-3.39%
CN(C)CCn1c(N)nc2ccccc21	5%
COc1cc(/C=C2/C(=N)N3OC(C)=CC3=NC2=O)ccc1OCCOc1ccc(Br)cc1	2%
Cc1nc2ccn(Cc3ccccc3)c(=O)c2cc1C(=O)N1CCOCC1	1.63%
FC(F)C(F)(F)c1cc(-c2ccccc2)[nH]n1	3.06%
CCCCCCNCc1ccc(Br)cc1	-4.67%
Cc1nc2c(C(=O)N(C)Cc3ccccc3)cnn2c(O)c1Cc1ccccc1F	0.723%
CN(C)Cc1ccc2c(sc3nc4n(c(=O)c32)CCCCC4)c1O	3.32%
COc1ccccc1NC(=O)CS(=O)(=O)c1ccc2ccccc2c1	-5.63%
Cn1cc(Cl)c(C(=O)NCc2cccc(F)c2)n1	-5%
Cc1cc(O)ccc1/N=C/c1c(C)nn(-c2ccc(F)cc2)c1O	-0.587%
N#CCNC(=O)C(CC1CCCCC1)C(=O)NCC1CCCCC1 (centres unmarked)	-0.214%
COc1ccc(N2C(=O)CC(N3CCCC4CCCCC43)C2=O)cc1 (centres unmarked)	-3.37%
Cc1ccc(-c2csc(/C(C#N)=C/c3ccc(N(C)C)cc3)n2)c(C)c1	-0.268%
CS(=O)(=O)N(CC(=O)Nc1cccnc1)c1cccc2ccccc12	-5.58%
NC(=O)CSc1nc2ccccc2n1CC(=O)N1CCCCC1	-3.19%
O=C(NC1CCCCCC1)c1cc(S(=O)(=O)N2CCCCC2)ccc1Cl	-6.25%

SMILES	% Inhibition @ 10 uM
COc1cc(-c2nn3c(Cc4ccccc4)nnc3s2)cc(OC)c1OC	6.49%
COc1ccc(C(=O)Nc2ccc(C)c(O)c2)cc1	-1.42%
FC(F)(F)c1cccc(N2CCN(Cc3ccc4ccccc4c3)CC2)c1	-1.86%
CCOc1ccc(C2C(C#N)=C(N)OC3=C2C(=O)CCC3)c(OCC)c1 (centres unmarked)	-2.88%
CCCc1nn(-c2ccc(F)cc2)c(O)c1/C=N/Cc1ccc(F)cc1	-7.55%
O=C(NCc1ccccc1)C1CCCN1S(=O)(=O)c1cccc2cccnc12 (centres unmarked)	-2.42%
COc1ccc(N2C(=O)c3ccccc3NC2c2ccc(F)cc2)cc1 (centres unmarked)	-2.44%
CC1(c2ccccc2)CC(C)(C)N(C(=O)CSC#N)c2ccccc21 (centres unmarked)	-2.05%
O=C(O)C1Cc2c([nH]c3ccccc23)C(c2cccnc2)N1 (centres unmarked)	-3.62%
O=C1C=C/C(=N\S(=O)(=O)c2ccc3ccccc3c2)C=C1Sc1nc2ccccc2s1	9.56%
Cc1ccc(C)n1-c1nnc(N2CCC(C(=O)N3CCN(C4CCCCC4)CC3)CC2)s1	7.31%
Cc1cccc2sc(NC(=O)C(NS(=O)(=O)c3cccs3)c3ccccc3)nc12 (centres unmarked)	0.0654%
CCSc1cc(C)nc2ncnn12	7.56%
Cn1nc(C(=O)N2CCN(c3ncccn3)CC2)c2c1-c1ccccc1SC2	7.85%
Cc1ccc(-c2cc(C(F)(F)F)n3nc(C(=O)N(C)Cc4cnn(C)c4C)cc3n2)cc1	0.964%
Cc1cc(C)c2oc(-c3ccc(NC(=O)c4ccco4)cc3)nc2c1	0.52%
O=S(=O)(c1ccc2[nH]c3c(c2c1)CCCCC3)N1CCn2c1nc1ccccc12	-4.13%
CCN(Cc1ccccc1)C(=O)c1nn(C)c2c1CSc1ccccc1-2	15.8%
Cc1ccc(-c2cc(C(F)F)n3ncc(C(=O)N(C)C45CC6CC(CC(C6)C4)C5)c3n2)cc1	2.46%
Cc1cc(=O)n2nc(N3CCCC(C(=O)NCc4ccc5c(c4)OCO5)C3)sc2n1 (centres unmarked)	6.06%
CCOc1ccc(NS(=O)(=O)c2ccc(NC(=O)[C@@H]3CCCC[C@@H]3C(=O)O)cc2)cc1	-0.173%
CCOc1ccc(-c2cc(C)n3nc(C(=O)Nc4cccnc4Cl)cc3n2)cc1	3.44%
CCN1CC2=C(OC(N)=C(C#N)C2c2cccs2)/C(=C/c2cccs2)C1 (centres unmarked)	3.05%
COc1ccc(NC(=O)Nc2ccc(F)cc2)cc1	2.94%
O=C(NCC12CC3CC(CC(C3)C1)C2)c1nc(-c2ccc(C(F)(F)F)cc2)no1	-3.07%

SMILES	% Inhibition @ 10 uM
COc1cc2c(cc1OC)C(c1cc(OC)c(OC)c(OC)c1)NCC2 (centres unmarked)	-5.74%
c1ccc(-c2ccc(-c3cn4ccccc4n3)cc2)cc1	4.41%
Cc1csc2nc(CNS(=O)(=O)c3ccc4c(c3)CCCC4)cn12	0.953%
COc1cc(C)c(CN2CCN(CCO)CC2)cc1C	-0.856%
CCc1cccc(NC(=O)Nc2ccc(C)cc2)c1	2.13%
CC1CCN(c2nnc(-n3cccc3CN3CCN(C)CC3)s2)CC1	-3.47%
O=C(O)c1cnn2c(C(F)(F)F)cc(-c3ccc(Br)cc3)nc12	5.39%
CCOc1ccc(C(=O)NCCCCc2ccccc2)cc1	-0.999%
OC(CCCN1CCC(O)(c2ccc(Cl)cc2)CC1)c1ccc(Cl)cc1 (centres unmarked)	-4.63%
CCOc1ccc(Nc2cc(O)nc(O)n2)cc1	3.44%
CC1(C)CC(=O)C2=C(C1)N(Cc1cccnc1)C(=O)C2(NC(=O)C1CC1)C(F)(F)F (centres unmarked)	1.91%
O=C(c1cc2c(s1)-c1ccccc1OC2)N(Cc1ccco1)C1CCCC1	-4.85%
CC(C)N(C(=O)CCCOc1ccc(Cl)cc1Cl)C(C)C	-8.76%
CCOc1ccc(-c2nc(CSCC(=O)N3CCC(N4CCCCC4)CC3)c(C)o2)cc1	-5.03%
CCOc1ccc(CNC(=O)CN(C)S(=O)(=O)c2ccc3[nH]c4c(c3c2)CCCC4)cc1OC	9.46%
COc1ccc(-c2onc(C)c2C)cc1S(=O)(=O)N(C)C(C)CCc1ccco1 (centres unmarked)	-1.23%
CCOC(=O)c1cnc2ccc(OC)cc2c1NC1CCCCC1	-1.25%
COc1ccc2c(c1)C(C)=CC(C)(C)N2	1.13% and -5.94%
CC(NC(=O)Cn1ncc2c3ccccc3n(Cc3ccccc3F)c2c1=O)c1ccccc1 (centres unmarked)	1.8%
CO/C(O)=C1\C(C)=NC2=C(C(=O)CC(c3ccccc3)C2)C1c1cc(Br)c(O)c(OC)c1 (centres unmarked)	2.45%
CC1=[N+]([O-])C(C)(C)CC(C)(C)c2ccccc21	3.16%
Cc1[nH]nc(NC(=O)c2ccccn2)c1Br	-5.03%
COc1ccc(C(=O)N2CCN(Cc3ccc(Cl)cc3)CC2)cc1OC	-5.03%
